Substitutions are numbered along the chain they refer to; changes in the protein carry UniProt numbers. Some of the results follow.

From publication PMC9911399, “Two distinct binding modes provide the RNA-binding protein RbFox with extraordinary sequence specificity” come the findings set out here.

B1: AGGAAUA (DNA:RNA)
RNA: GGGAGACCGGAAUUCAGAUUGUCCAGGAAUAUUAAAUCCCGUCGUAGCCACCA
DNA 1: CAATCTGAATTCCGGTCTCCC
DNA 2: TGGTGGCTACGACGGGATT
B2: AAAAAAC (DNA:RNA)
RNA: B1 RNA with G26A, G27A, U30A, A31C
DNA 1: CAATCTGAATTCCGGTCTCCC
DNA 2: TGGTGGCTACGACGGGATT
B3: GUACCGA (DNA:RNA)
RNA: B1 RNA with A25G, G26U, G27A, A28C, A29C, U30G
DNA 1: CAATCTGAATTCCGGTCTCCC
DNA 2: TGGTGGCTACGACGGGATT
B4: CGAUGCG (DNA:RNA)
RNA: B1 RNA with A25C, G27A, A28U, A29G, U30C, A31G
DNA 1: CAATCTGAATTCCGGTCTCCC
DNA 2: TGGTGGCTACGACGGGATT
B5: ACUCAGG (DNA:RNA)
RNA: B1 RNA with G26C, G27U, A28C, U30G, A31G
DNA 1: CAATCTGAATTCCGGTCTCCC
DNA 2: TGGTGGCTACGACGGGATT
B6: GUUCACU (DNA:RNA)
RNA: B1 RNA with A25G, G26U, G27U, A28C, U30C, A31U
DNA 1: CAATCTGAATTCCGGTCTCCC
DNA 2: TGGTGGCTACGACGGGATT
B7: AUUAGCA (DNA:RNA)
RNA: B1 RNA with G26U, G27U, A29G, U30C
DNA 1: CAATCTGAATTCCGGTCTCCC
DNA 2: TGGTGGCTACGACGGGATT
B8: UCCAGAC (DNA:RNA)
RNA: B1 RNA with A25U, G26C, G27C, A29G, U30A, A31C
DNA 1: CAATCTGAATTCCGGTCTCCC
DNA 2: TGGTGGCTACGACGGGATT
B9: CUAAAAG (DNA:RNA)
RNA: B1 RNA with A25C, G26U, G27A, U30A, A31G
DNA 1: CAATCTGAATTCCGGTCTCCC
DNA 2: TGGTGGCTACGACGGGATT
B10: ACGGAAA (DNA:RNA)
RNA: B1 RNA with G26C, A28G, U30A
DNA 1: CAATCTGAATTCCGGTCTCCC
DNA 2: TGGTGGCTACGACGGGATT
B11: GUCGUAC (DNA:RNA)
RNA: GGGAGACCGGAAUUCAGAUUGUCCGUCGUACUUAAAUCCCGUCGUAGCCACCA
DNA 1: CAATCTGAATTCCGGTCTCCC
DNA 2: TGGTGGCTACGACGGGATT
B12: CAGAUGU (DNA:RNA)
RNA: B1 RNA with A25C, G26A, A29U, U30G, A31U
DNA 1: CAATCTGAATTCCGGTCTCCC
DNA 2: TGGTGGCTACGACGGGATT
B13: AAGCACG (DNA:RNA)
RNA: B1 RNA with G26A, A28C, U30C, A31G
DNA 1: CAATCTGAATTCCGGTCTCCC
DNA 2: TGGTGGCTACGACGGGATT
B14: CGUCAUC (DNA:RNA)
RNA: B1 RNA with A25C, G27U, A28C, A31C
DNA 1: CAATCTGAATTCCGGTCTCCC
DNA 2: TGGTGGCTACGACGGGATT
B15: ACAGGGU (DNA:RNA)
RNA: B1 RNA with G26C, G27A, A28G, A29G, U30G, A31U
DNA 1: CAATCTGAATTCCGGTCTCCC
DNA 2: TGGTGGCTACGACGGGATT
B16: UUAUUAC (DNA:RNA)
RNA: B11 RNA with G25U, C27A, G28U
DNA 1: CAATCTGAATTCCGGTCTCCC
DNA 2: TGGTGGCTACGACGGGATT
B17: ACAUAGU (DNA:RNA)
RNA: B1 RNA with G26C, G27A, A28U, U30G, A31U
DNA 1: CAATCTGAATTCCGGTCTCCC
DNA 2: TGGTGGCTACGACGGGATT
B18: ACUAUGC (DNA:RNA)
RNA: B1 RNA with G26C, G27U, A29U, U30G, A31C
DNA 1: CAATCTGAATTCCGGTCTCCC
DNA 2: TGGTGGCTACGACGGGATT
B19: GGGGAAC (DNA:RNA)
RNA: B11 RNA with U26G, C27G, U29A
DNA 1: CAATCTGAATTCCGGTCTCCC
DNA 2: TGGTGGCTACGACGGGATT
B20: CACCCGA (DNA:RNA)
RNA: B1 RNA with A25C, G26A, G27C, A28C, A29C, U30G
DNA 1: CAATCTGAATTCCGGTCTCCC
DNA 2: TGGTGGCTACGACGGGATT
B21: UACCUUC (DNA:RNA)
RNA: B11 RNA with G25U, U26A, G28C, A30U
DNA 1: CAATCTGAATTCCGGTCTCCC
DNA 2: TGGTGGCTACGACGGGATT
B22: CUUGGCA (DNA:RNA)
RNA: B11 RNA with G25C, C27U, U29G, A30C, C31A
DNA 1: CAATCTGAATTCCGGTCTCCC
DNA 2: TGGTGGCTACGACGGGATT
B23: GGUGCCA (DNA:RNA)
RNA: B1 RNA with A25G, G27U, A28G, A29C, U30C
DNA 1: CAATCTGAATTCCGGTCTCCC
DNA 2: TGGTGGCTACGACGGGATT
B24: AUCUGGA (DNA:RNA)
RNA: B1 RNA with G26U, G27C, A28U, A29G, U30G
DNA 1: CAATCTGAATTCCGGTCTCCC
DNA 2: TGGTGGCTACGACGGGATT
B25: CCGGGCA (DNA:RNA)
RNA: B1 RNA with A25C, G26C, A28G, A29G, U30C
DNA 1: CAATCTGAATTCCGGTCTCCC
DNA 2: TGGTGGCTACGACGGGATT
B26: CAUAAGC (DNA:RNA)
RNA: B1 RNA with A25C, G26A, G27U, U30G, A31C
DNA 1: CAATCTGAATTCCGGTCTCCC
DNA 2: TGGTGGCTACGACGGGATT
B27: UACACGU (DNA:RNA)
RNA: B1 RNA with A25U, G26A, G27C, A29C, U30G, A31U
DNA 1: CAATCTGAATTCCGGTCTCCC
DNA 2: TGGTGGCTACGACGGGATT
B28: CUGCUGA (DNA:RNA)
RNA: B1 RNA with A25C, G26U, A28C, A29U, U30G
DNA 1: CAATCTGAATTCCGGTCTCCC
DNA 2: TGGTGGCTACGACGGGATT
B29: UACGAGU (DNA:RNA)
RNA: B11 RNA with G25U, U26A, U29A, A30G, C31U
DNA 1: CAATCTGAATTCCGGTCTCCC
DNA 2: TGGTGGCTACGACGGGATT
B30: GGCCUGU (DNA:RNA)
RNA: B11 RNA with U26G, G28C, A30G, C31U
DNA 1: CAATCTGAATTCCGGTCTCCC
DNA 2: TGGTGGCTACGACGGGATT
B31: CAUCGUA (DNA:RNA)
RNA: B1 RNA with A25C, G26A, G27U, A28C, A29G
DNA 1: CAATCTGAATTCCGGTCTCCC
DNA 2: TGGTGGCTACGACGGGATT

The test deals with T1, RBFOX1 RRM RbFoxmut (Fox-RRM*) (Homo sapiens, UniProt Q9NWB1 109-208, R118D;E147R;N151S;E152T).
T1 sequence: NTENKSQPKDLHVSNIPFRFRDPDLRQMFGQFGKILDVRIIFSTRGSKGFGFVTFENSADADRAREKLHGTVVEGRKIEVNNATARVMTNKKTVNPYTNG
Kind of test: EMSA; HiTS-Eq, 1 nM pool, 10 min; buffer printed only for the single-RNA assays: 10 mM Tris pH 7.5, 150 mM NaCl, 3.4 mM EDTA, 0.001% NP-40, 30 C. The settings on record: tags: His6 N-terminal (pET28a); label: 5' 32P. The method in brief:
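Purified wild-type or mutant RbFox RRM at increasing concentrations was equilibrated with 1 nM of 5′-radiolabelled RNA carrying 7 randomized nucleotides for 10 min in 50 µL. Unbound RNA was separated by 8% native PAGE and sequenced. Relative association constants came from read-count changes of each RNA species compared with the control reaction, normalised to the cognate motif.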
(Mobility shift assays separate free from complexed probe on a gel.)
As to B1, the binding signal was 0.155 KA relative to UGCAUGU.

As to B2, the binding signal is 0.0759 KA relative to UGCAUGU.

In the case of B3, the binding signal is 0.103 KA relative to UGCAUGU.

As to B4, the binding signal was 0.113 KA relative to UGCAUGU.

On to B5, for which the binding signal is 0.104 KA relative to UGCAUGU.

For the molecule B6, the binding signal was 0.0707 KA relative to UGCAUGU.

Take B7: the binding signal was 0.142 KA relative to UGCAUGU.

Consider B8, for which the binding signal is 0.0633 KA relative to UGCAUGU.

For B9, the binding signal was 0.067 KA relative to UGCAUGU.

As to B10, the binding signal was 0.0755 KA relative to UGCAUGU.

Consider B11, for which the binding signal was 0.123 KA relative to UGCAUGU.

For B12, the binding signal was 0.116 KA relative to UGCAUGU.

B13: the binding signal was 0.2 KA relative to UGCAUGU.

Take B14: the binding signal is 0.0997 KA relative to UGCAUGU.

B15: the binding signal was 0.097 KA relative to UGCAUGU.

With B16, the binding signal is 0.139 KA relative to UGCAUGU.

For the molecule B17, the binding signal is 0.129 KA relative to UGCAUGU.

Regarding B18, the binding signal is 0.131 KA relative to UGCAUGU.

On to B19, for which the binding signal was 0.0664 KA relative to UGCAUGU.

As for B20, the binding signal is 0.112 KA relative to UGCAUGU.

Take B21: the binding signal is 0.0485 KA relative to UGCAUGU.

For B22, the binding signal was 0.137 KA relative to UGCAUGU.

Consider B23, for which the binding signal was 0.0836 KA relative to UGCAUGU.

B24: the binding signal was 0.0445 KA relative to UGCAUGU.

B25: the binding signal was 0.0982 KA relative to UGCAUGU.

Consider B26, for which the binding signal was 0.0858 KA relative to UGCAUGU.

In the case of B27, the binding signal was 0.0731 KA relative to UGCAUGU.

For B28, the binding signal was 0.112 KA relative to UGCAUGU.

Turning to B29, the binding signal was 0.0976 KA relative to UGCAUGU.

In the case of B30, the binding signal was 0.179 KA relative to UGCAUGU.

B31: the binding signal is 0.15 KA relative to UGCAUGU.
